From publication PMC3923519 (Structure (London, England : 1993), 2013)

Target: bromodomain-PHD finger tandem module of human CBP (residues 1081-1316) (human, UniProt Q92793 1081-1316)
Assay: crystal structure

UniProt Q92793, sequence (Q92793 1081-1316): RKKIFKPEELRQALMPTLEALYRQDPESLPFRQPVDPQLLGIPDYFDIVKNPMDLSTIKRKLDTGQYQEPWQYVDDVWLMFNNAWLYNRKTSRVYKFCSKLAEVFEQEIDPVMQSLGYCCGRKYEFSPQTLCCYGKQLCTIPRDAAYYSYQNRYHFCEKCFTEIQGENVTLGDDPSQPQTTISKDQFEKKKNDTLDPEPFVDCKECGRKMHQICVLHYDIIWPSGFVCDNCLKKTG

binding result: binds
B1: histone H4K12ac/K16ac peptide ([…]) (peptide)
peptide: not shown
modifications: acetyl-lysine at 12 and at 16 (Kac)
